The results in this text go back to PubChem BioAssay AID434955 (Southern Research Specialized Biocontainment Screening …, 2010).

Usually inhibition stands for the drop in the measured response relative to a control, in per cent.

Some of the results follow. The main result of the screen is listed elsewhere. These columns were measured beside it and carry no call. Most of these compounds were active or inconclusive in the main read-out, so they are no random draw.

This assay is described as follows: beta-lactam sensitization of Mtb H37Rv, H37Rv (AID 434955).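 Further: growth measured after seven days incubation then overnight dye step; 0% = bacteria only wells and 100% = bacteria with antibiotic.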 Conditions: M. tuberculosis H37Rv growth with meropenem, percent inhibition; measured here: primary screen without meropenem; at 25 µM.
For `Cc1cc(N(CN2CCCC2=O)C(=O)c2ccccc2)no1`, the inhibition was found to be 3.03%.
With `CCOc1ccc(C2C(C(=O)Nc3ccc(F)cc3)=C(C)Nc3nc(CCCO)nn32)cc1` (stereo not given) the figure was -5.73%; with `O=C(CC1Oc2ccc(Cl)cc2NC1=O)NC1CCCCCC1` (stereo not given), -5.13%; with `Cc1cc(C)cc(OCC(=O)NNC(=O)c2ccccn2)c1`, 94.7%.
With `COc1ccc(CCNC(=O)Cn2nc([N+](=O)[O-])c(Br)c2C)cc1OC`, the inhibition was determined as 1.63%.
On to `O=C(CNC(=O)c1ccccc1C(=O)O)c1ccccc1`, for which the inhibition was -12.4%.
Consider `O=C(COc1cc(Cl)ccc1Cl)Nc1nnc(C2CC2)s1`, for which the inhibition came to 8.95%.
Next, `COc1cccc2cc(C(=O)NCc3ccccc3Br)c(=O)oc12`: 3.49%.
Take `COc1ccc(/C=C(/NC(=O)c2ccc(Br)cc2)C(=O)N2CCOCC2)cc1`: the inhibition came to 8.51%.
Next, `O=C(NCc1ccc(Cl)cc1)C1CCN(C(=O)Cc2ccccc2)CC1`: -6.38%.
Next, `Cc1ccc2c(c1)N(CC(=O)NC1CCC(C)CC1)C(=O)c1cccnc1O2` (stereo not given): -4.97%.
With `O=C(N/N=C/c1cccc([N+](=O)[O-])c1)C(=O)N1CCCCCC1` the figure was 2.87%; with `CCC(=O)NC(=S)Nc1ccc(S(=O)(=O)NC2CCCCC2)cc1`, 4.62%.
Regarding `O=C(Nc1nc2c(ccc3ccccc32)s1)c1ccco1`, the inhibition was 63.2%.
As for `COc1ccc(-c2ccc(SCC(=O)NC3CCCC3)nn2)cc1OC`, the inhibition was -6.55%.
Take `COC(=O)c1c(-c2ccc(OC)cc2)oc2ccc(-c3cc(OC)c(OC)c(OC)c3)cc12`: the inhibition worked out at 32.5%.
Regarding `CN(CC(=O)Nc1cccnc1)S(=O)(=O)c1cc(Cl)ccc1Cl`, the inhibition came out at 2.88%.
With `CC(O)/C=C/c1ccc2ccccc2n1` (stereo not given) the figure was 10.9%; with `Cc1cccc(C)c1OCc1cc(C(=O)N(C)Cc2cc(C3CC3)n[nH]2)no1`, 6.29%.
With `CN(Cc1ccc(Cl)cc1Cl)C(=O)CNC(=O)c1ccco1`, the inhibition is -2.92%.
With `CCCC(C)c1nc(C(N)=O)c2[nH]c(=O)n(-c3ccc(OC)cc3OC)c2n1` (stereo not given) the figure was 0.21%; with `Nc1nc(N)c2nc(CNc3ccc(C(=O)NC(CCC(=O)O)C(=O)O)cc3)cnc2n1` (stereo not given), 15.5%.
With `Cc1cc2nc(SCC(=O)Nc3nonc3C)c3c(c2cc1C)CCCC3` the figure was 8.37%.
Next, `COc1ccc(-n2c(=S)[nH]c3cc(C(=O)NCc4ccco4)ccc3c2=O)c(OC)c1`: 2.86%; `CC(C)c1nc2cc(C(=O)N3CCN(c4cnccn4)CC3)ccc2o1`: 0.35%.
For the compound `CCc1cc2c(Sc3nc4ccccc4s3)ncnc2s1`, the inhibition is 11.1%.
Next, `Cc1onc(-c2c(F)cccc2Cl)c1C(=O)Nc1sc2c(c1C(N)=O)CCC2`: -5.61%; `O=C(Oc1c(-c2ccccc2Cl)oc2ccccc2c1=O)c1ccc(Cl)cc1`: 24.7%.
Turning to `COc1cc(OC)c(OC)cc1CN1CCN(S(=O)(=O)c2ccc(F)cc2)CC1`, the inhibition is -2.99%.
With `COc1cccc(/C=N/NC(=O)c2cnccn2)c1O` the figure was 4.49%; with `CCOc1cccc(NC(=O)C2CCCN(S(=O)(=O)c3ccc(OC)cc3)C2)c1` (stereo not given), -2.26%; with `COc1ccc(O)c(CN2CCC(n3nccc3NC(=O)CCOc3ccccc3)CC2)c1`, 8.62%.
Take `Cc1cc(C)n(CC(=O)N2CCCC(N3CCN(c4ccccc4C)CC3)C2)n1` (stereo not given): the inhibition stood at 0.01%.
Next, `CCc1nc2oc3cc(OC)ccc3c(=O)c2c(=O)n1Cc1ccccc1`: -1.3%.
Next, `O=C(CSc1nnc(CNC(=O)c2ccccc2)o1)Nc1ccc2c(c1)OCO2`: -3.23%.
Next, `Cc1[nH]n(-c2nc(-c3cccc([N+](=O)[O-])c3)cs2)c(=O)c1C`: 63.3%; `O=C(O)CCN1C(=O)/C(=C/c2ccc(-c3nc4ccccc4s3)o2)SC1=S`: -4.77%; `C[N+]1(C)[C@@H]2CC[C@H]1CC(OC(=O)C(c1ccccc1)c1ccccc1)C2` (stereo not given in full): 7.54%.
In the case of `COc1cccc(N2CC(C(=O)Nc3nnc(SCC(=O)NC4CCCC4)s3)CC2=O)c1` (stereo not given), the inhibition was -2.67%.
Next, `CC1(C)CC(=O)C(C(O)c2ccc([N+](=O)[O-])cc2)C(C)(C)N1` (stereo not given): 4.7%; `Cc1cnc(NC(=O)CSc2nnc(-c3ccccc3)n2Cc2ccccc2)s1`: -1.56%.
Next, `O=C(CN1CCNCC1)Nc1ccc(Oc2ccccc2)cc1`: -1.13%.
On to `CC1(C)Cc2c(cnn2-c2cccc(F)c2)C(NC(=O)CCN2CCCC2=O)C1` (stereo not given), for which the inhibition worked out at 2.61%.
For `CCC1CCCCN1CCCNC(=O)Cn1ncn2nc(-c3ccc(OC)cc3)cc2c1=O` (stereo not given), the inhibition turned out to be 3.17%.
With `O=C(NCCN1CCN(c2cccc(Cl)c2)CC1)Nc1ccccc1` the figure was 12.6%; with `CC(CC(F)(F)F)N1CCC(n2nccc2NC(=O)CCCc2ccccc2)CC1` (stereo not given), -4.53%.
Next, `CC1(C)Cc2c(sc(NC(=O)c3ccc(C(=O)c4ccccc4)cc3)c2C(N)=O)C(C)(C)N1`: 95.8%; `CC(=O)N1CCN(C(=O)CCc2nc3sc4c(c3c(=O)[nH]2)CCCC4)CC1`: -2.75%; `CC(C)c1ccc(CN(C(=O)c2cc3ccccc3oc2=O)C2CCS(=O)(=O)C2)cc1` (stereo not given): 3.88%.
For `CCCCn1c(SCC(N)=O)nnc1-c1ccco1`, the inhibition is -9.89%.
Next, `O=C1OC(/C=C/c2ccccc2)=NC/1=C/c1ccco1`: 48.4%; `COc1cccc(NS(=O)(=O)c2ccc3[nH]cc(C(=O)NCCC(C)C)c(=O)c3c2)c1`: 14.1%.
Turning to `COc1ccc2oc(C(=O)OCC(=O)N3CC(C)OC(C)C3)c(C)c2c1` (stereo not given), the inhibition is 0.09%.
Next, `COc1ccc2[nH]cc(C(=O)CCl)c2c1`: 50.5%.
With `O=C(NC1CCCC1)c1cccc2c1C(=O)c1ccc(N3CCCCC3)cc1S2(=O)=O`, the inhibition was found to be 66.2%.
With `COc1ccccc1-c1nnc(NC(=O)c2ccc(S(=O)(=O)N(C)CC3CCCO3)cc2)o1` (stereo not given) the figure was 45.1%.
Take `Cc1cccc(C(=O)Nc2nnc(S(=O)(=O)N(C)Cc3ccco3)s2)c1`: the inhibition turned out to be 17.9%.
Next, `O=C(Nc1ccccc1)c1cccc(N2C(=O)C3C4CC(C(Br)C4Br)C3C2=O)c1` (stereo not given): 7.24%.
With `Cc1ccc(N(C(=O)C2CCC(=O)N2)C2(C(=O)NC3CCCC3)CCCCC2)cc1` (stereo not given) the figure was 1.37%; with `COc1ccc(C2c3c(C)nn(-c4ccccc4)c3NC(=O)N2c2ccccc2)cc1` (stereo not given), 42.9%; with `CCOc1ccc(N(CC(=O)NCCOc2ccc(C)cc2)S(=O)(=O)c2ccccc2)cc1`, 0.97%.
With `CCOC(=O)c1sc2cc([N+](=O)[O-])cc(SCC(C)C)c2c1N` the figure was 2.8%; with `O=C(CSc1nnc(-c2ccncc2)n1-c1ccccc1)NC1CC1`, -4.84%; with `CCCn1cc(S(=O)(=O)c2ccc(OC)cc2)c(=O)c2cc(OC)ccc21`, 1.7%.
With `Cc1ccc(-n2ncc3c2CCCC3NC(=O)c2csnn2)cc1C` (stereo not given), the inhibition is 5.74%.
Take `CCN1CCN(C(=O)COCc2cc(-c3ccc4c(c3)OCO4)on2)CC1`: the inhibition is -4.82%.
Next, `CCOC(=O)C1CCCCN1C(=O)c1oc2c(Cl)cc(C)cc2c1C` (stereo not given): -7.6%; `C[N+](C)(C)CCN(Cc1ccc(Cl)cc1)c1ccccn1`: 6.71%; `CCCCCCCCCS(=O)(=O)N/N=C/c1cccc([N+](=O)[O-])c1`: -1.61%.
With `COc1ccc(F)c(CN2CCC(n3nccc3NC(=O)C3CCOC3)CC2)c1` (stereo not given) the figure was -3.97%; with `CC(Sc1nnc(N)s1)c1ccccc1Cl` (stereo not given), -3.43%.
Turning to `COc1cccc(C2=NOC(C(=O)NCc3cccs3)C2)c1` (stereo not given), the inhibition was found to be 21.2%.
With `O=C(CN1C(=O)c2cccnc2Oc2ccc(Cl)cc21)NC1CCCCC1` the figure was -9.92%; with `BrC(=C\c1ccccc1)/C=N/N1CCN(c2ccccn2)CC1`, 9.41%.
`CC1CCN(C(=O)CCCN2C(=O)c3cccnc3Oc3ccc(Cl)cc32)CC1`: the inhibition was 0.12%.
With `CN(CC(=O)NC1CCCCCC1)S(=O)(=O)c1ccc(Br)cc1` the figure was 12.5%; with `COc1cccc(C2CC(c3ccc(C)cc3)n3ncnc3N2)c1` (stereo not given), -10.2%; with `COc1ccc(CCN2CC(C(=O)NCCc3ccccn3)CCC2=O)cc1` (stereo not given), -3.03%.
In the case of `Cc1cc(NS(=O)(=O)c2ccc(NC(=O)COc3ccccc3C(C)(C)C)cc2)no1`, the inhibition stood at 4.47%.
With `Cn1nnnc1SCC(=O)Nc1ccccc1[N+](=O)[O-]` the figure was 13.8%.
For the compound `O=C(NNC(=O)c1ccc(Oc2cc(Cl)cc(Cl)c2)o1)c1ccccc1`, the inhibition was 50.8%.
As for `Cc1cc(C(=O)NC2CCCN(Cc3ccc(Cl)cc3)C2)no1` (stereo not given), the inhibition was determined as 20.1%.
With `CCOc1ccc(-c2nc(S(=O)(=O)c3ccccc3)c(NC)o2)cc1`, the inhibition is 6.47%.
Next, `COc1ccc(Cc2nnc3c4cnn(C)c4ncn23)cc1`: -2.34%; `COc1cc(Cl)ccc1OCc1cc(C(=O)NC2CCc3ccccc32)no1` (stereo not given): 3.44%; `C#CCn1cnc2c(oc3ccccc32)c1=O`: 2.24%.
On to `CC(=O)Nc1ccc(S(=O)(=O)Oc2ccccc2N2C(=O)C3C4CCC(C4)C3C2=O)cc1` (stereo not given), for which the inhibition is -3.78%.
With `COc1ccccc1N1CCN(C(=O)c2oc3c(c2C)C(=O)CC(C)(C)C3)CC1` the figure was 2.08%.
With `Cc1ccccc1CCN1CCCC(CN(C)C(=O)C(=O)c2ccco2)C1` (stereo not given) the figure was -13.1%; with `CCCc1ccc2oc(C(=O)N3CCNC(=O)C3CC(=O)OC)c(C)c2c1` (stereo not given), 4.87%.
With `CCN(CC)CCN(C(=O)c1ccc(S(=O)(=O)N(C)C2CCCCC2)cc1)c1nc2ccc(OC)cc2s1`, the inhibition was -5.69%.
On to `CCCCCc1nnc(NC(=O)C2COc3ccccc3O2)s1` (stereo not given), for which the inhibition was 20.3%.
With `O=c1cc(CSc2nnc(-c3ccccc3)o2)c2ccccc2[nH]1` the figure was -7.03%.
Consider `Cc1cccc(C2CC(c3ccc(Cl)cc3)Nc3nc(N)nn32)c1` (stereo not given), for which the inhibition was -7.92%.
For `Cc1ccn2cc(CNS(=O)(=O)c3ccc4ccccc4c3)nc2c1`, the inhibition was -6.41%.
Take `O=C(Nc1nnc(-c2ccncc2)o1)c1ccc2ccccc2c1`: the inhibition worked out at 94.7%.
With `O=C(N/N=C/c1ccc(O)cc1O)NC12CC3CC(CC(C3)C1)C2`, the inhibition came to 4.03%.
With `CCC(c1nnnn1C(C)(C)C)N(Cc1ccco1)Cc1cc2cccc(C)c2[nH]c1=O` (stereo not given), the inhibition was found to be 3.13%.
Next, `COc1ccc(OCc2cc(C(=O)N(C)CC3CCCCO3)no2)c(Cl)c1` (stereo not given): 7.34%; `Cc1cc(C)c(NC(=O)CC(C)(C)C)c(Cl)c1`: 6.12%.
Next, `CC(C)(C)NS(=O)(=O)c1ccc(NC(=S)NC(=O)C2CCC2)cc1`: 3.05%; `COc1ccc(-n2ncc3c(NCc4ccc5c(c4)OCO5)ncnc32)cc1`: -4.68%.
Regarding `CCOC(=O)c1sc(NC(=O)CN2CCN(c3ccc(OC)cc3)CC2)nc1C`, the inhibition was 50.8%.
`Cc1ccc(NC(=O)CSc2n[nH]c(-c3ccco3)n2)cc1`: the inhibition stood at 44.5%.
In the case of `Cc1ccc(S(=O)(=O)N2CCN(Cc3nc4sc5c(c4c(=O)[nH]3)CCCC5)CC2)cc1`, the inhibition amounted to 1.29%.
